PubChem BioAssay AID179 (DTP/NCI, 2004)
Some entries of the source have several records that differ or are many. Only these are listed. An entry can have further records. Results that share an entry are repeats in other runs, samples, wells, individuals or studies. Marks in square brackets tell the records apart. A, B and so on number the origins entry by entry.

System: CEM cells HIV-1 protection, formazan growth assay
Test: NCI AIDS Antiviral Assay
Conditions: for IC50: measured here: growth of uninfected CEM cells
Summary of the method: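 Protection of CEM cells against HIV-1 measured as cell growth via soluble formazan read-out, with five concentrations tested on both infected and uninfected cells; failure to protect may reflect toxicity.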

Row | SMILES | EC50 | IC50
1 | COc1ccc(/C=C2/N=C(N/N=C\C(O)C(O)C(O)C(O)CO)NC2=O)cc1 (stereo not drawn) | 4.79 µM [sample A] and > 200 µM [sample B] | 
2 | CC1(C)CNCC2(C)OCCCCCCCCCCOC3(C)CNCC(C)(C)[N-]C(=O)C(C)(CNCC(C)(C)[N-]C3=O)OCCCCCCCCCCOC(C)(CNCC(C)(C)[N-]C2=O)C(=O)[N-]1.[Ni+2].[Ni+2] |  | 13.8 µM [sample A] and 182 µM [sample B]
3 | CCCCCCCCCCCCCCCCP(=O)(O)OP(=O)(O)OCC1OC(n2ccc(N)nc2=O)C(O)C1O (stereo not drawn) |  | 69.2 µM [sample A] and 575 nM [sample B]
